Test results taken from PubChem BioAssay AID1460 (National Center for Advancing Translational Sciences (NCATS), 2008).
The campaign covered roughly 270,000 compounds. About 5,800 (2.1%) were called active. The shares of active, inactive and inconclusive entries below differ from those in the screen. The call rests on the fitted dose curve; in most records, active means well fitted inhibition curve with a large enough effect; inconclusive means small, poorly fitted or top-dose-only effect; inactive means flat fitted curve, though single readings scatter. Potencies beside an inconclusive call are fits to weak or partial responses and may not hold up.

The compounds below were run against Microtubule-associated protein tau (Homo sapiens) (UniProt P10636) (assay: qHTS for Inhibitors of Tau Fibril Formation, Thioflavin T Binding). Conditions: recombinant tau K18 P301L (four-repeat tau fragment), heparin-induced fibrillization, ThT fluorescence; series mostly up to 57.4 µM; activity, negative = inhibition: at the top concentration.
Sequence of UniProt P10636 (P10636 whole entry, looked up, the tested form may be a part): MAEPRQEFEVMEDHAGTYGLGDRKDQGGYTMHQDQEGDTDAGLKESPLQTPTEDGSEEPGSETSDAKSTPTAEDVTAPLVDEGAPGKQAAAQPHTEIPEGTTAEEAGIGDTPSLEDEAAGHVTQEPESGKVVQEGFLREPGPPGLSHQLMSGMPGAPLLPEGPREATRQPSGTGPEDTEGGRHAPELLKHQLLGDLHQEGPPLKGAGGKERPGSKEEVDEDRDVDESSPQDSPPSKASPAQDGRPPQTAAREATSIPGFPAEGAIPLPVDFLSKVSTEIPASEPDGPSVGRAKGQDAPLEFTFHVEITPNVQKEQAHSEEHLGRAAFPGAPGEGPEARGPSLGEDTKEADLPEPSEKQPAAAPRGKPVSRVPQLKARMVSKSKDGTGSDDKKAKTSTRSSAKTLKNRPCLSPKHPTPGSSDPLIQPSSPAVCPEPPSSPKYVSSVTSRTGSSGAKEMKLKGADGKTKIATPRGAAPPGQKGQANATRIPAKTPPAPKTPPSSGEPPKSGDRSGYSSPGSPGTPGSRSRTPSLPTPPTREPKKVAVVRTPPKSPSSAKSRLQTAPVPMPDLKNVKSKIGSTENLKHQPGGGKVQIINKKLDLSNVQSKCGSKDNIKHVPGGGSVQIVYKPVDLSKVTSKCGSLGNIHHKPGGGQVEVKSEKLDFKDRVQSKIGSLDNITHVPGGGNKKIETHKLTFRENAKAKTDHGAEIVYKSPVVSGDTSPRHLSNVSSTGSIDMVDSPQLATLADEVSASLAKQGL
Summary of the method: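 Recombinant human tau K18 fragment […] carrying P301L, 15 uM unlabeled plus 0.24 uM Alexa 594-labeled, was fibrillized with 20 uM heparin in 100 mM sodium acetate pH 7 for 6 hr at 37 C; 30 uM ThT fluorescence read after 1 hr.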
Further: nearly all actives have a fitted effect of over 55% in size.
On the % scale 0 is the no-effect control and ±100 the full control effect; potency means the concentration at half of the fitted maximal effect; tags describe the fitted curve by direction and shape.

| SMILES | Potency | activity, negative = inhibition |
| --- | --- | --- |
| CC(=O)Nc1cccc(C(=O)/C=C/c2ccc(/C=C/C(=O)c3cccc(NC(C)=O)c3)cc2)c1 | inconclusive: 3.55 µM [inhibitor, partial curve] | – |
| COc1ccc2nc(SCC(=O)Nc3nccs3)[nH]c2c1 | inconclusive: 20 µM [inhibitor, single point] | – |
| Cn1c(=O)c2ncn(CC(=O)NCCOc3ccc(C(C)(C)C)cc3)c2n(C)c1=O | – | inactive: -8.13% |
| CC1(C)CC(=O)C2=C(C1)Nc1ccccc1NC2 | – | inactive: 4.06% |
| COc1cccc(NC(=O)CSc2nc3ccccc3nc2N2CCOCC2)c1 | inconclusive: 22.4 µM [inhibitor, partial curve, poor fit] | – |
| COc1cccc(/C=N/NC(=O)CSc2ccccc2C)c1O | inconclusive: 10 µM [inhibitor, partial curve, poor fit] | – |
| CCNc1ccc(C(=O)NN=C2CCCC2)cc1[N+](=O)[O-] | active: 8.91 µM | – |
| Cc1cc2nc(-c3ccc(SCC(=O)N4CCc5ccccc54)nc3)[nH]c2cc1C | inconclusive: 1.26 µM [inhibitor, full curve] | – |
| CCOC(=O)N1CCN(C(=O)Nc2ccc3nc(-c4ccccn4)c(-c4ccccn4)nc3c2)CC1 | inconclusive: 15.8 µM [inhibitor, partial curve, poor fit] | – |
| O=C(CSc1ncn[nH]1)Nc1nc(-c2cccc([N+](=O)[O-])c2)cs1 | inconclusive: 28.2 µM [inhibitor, single point] | – |
| Cc1ccc(C(=O)Nc2ccc3c(c2)OCO3)cc1NC(=O)c1ccco1 | inconclusive: 22.4 µM [inhibitor, single point] | – |
| Cc1ccccc1NC1=NCC(c2ccc([N+](=O)[O-])cc2)S1 (configuration not stated) | inconclusive: 25.1 µM [inhibitor, single point] | – |
| COc1cc(C(=O)Nc2ccc3c(c2)OCO3)ccc1OCc1c(C)noc1C | inconclusive: 17.8 µM [inhibitor, single point] | – |
| CCc1nnc(NS(=O)(=O)c2ccc(N/C=C\C(=O)c3cccc4ccccc34)cc2)s1 | inconclusive: 39.8 µM [inhibitor, single point] | – |
| Cc1ccc(Sc2cnc3ccccc3n2)cc1 | – | inactive: -15.6% |
| CC(Sc1nc(-c2ccc(F)cc2)cs1)C(=O)N1c2ccccc2CC1C (configuration not stated) | inconclusive: 25.1 µM [inhibitor, partial curve] | – |
| CCN1CCN(c2cc3c(cc2F)c(=O)c(C(=O)O)cn3C2CC2)CC1 | inconclusive: 35.5 µM [inhibitor, single point] | – |
| CCOC(=O)c1sc(NC(=O)c2sccc2C)cc1C | inconclusive: 15.8 µM [inhibitor, partial curve] | – |
| CCOC(=O)CSC1=C(C#N)C(c2ccccc2OCC)C(C#N)C(=O)N1 (configuration not stated) | inconclusive: 25.1 µM [inhibitor, partial curve, poor fit] | – |
| COc1ccccc1COCC(O)CN(Cc1ccco1)Cc1ccccc1O (configuration not stated) | inconclusive: 1 µM [inhibitor, full curve, poor fit] | – |
| CCN(CC)c1ccc(N=Cc2c(C)[nH]c3ccccc23)cc1 | active: 8.91 µM | – |
| O=C(CN1CCN(c2ccc(O)cc2)CC1)Nc1ccc2c(c1)OCCO2 | inconclusive: 20 µM [inhibitor, partial curve] | – |
| Cc1ccc(-c2noc(CN3CCN(c4ccccc4F)CC3)n2)cc1 | inconclusive: 10 µM [inhibitor, partial curve] | – |

| SMILES | Potency | activity, negative = inhibition |
| --- | --- | --- |
| O=c1c(=NNc2ccccc2Cl)c(=O)c2ccccc12 | inconclusive: 1.26 µM [inhibitor, full curve] | – |
| O=C(Nc1cccc(Cl)c1)c1ccc(F)c(S(=O)(=O)NCc2cccs2)c1 | – | inactive: -3.55% |
| CN1CCc2c(sc3c2C(=O)NC(c2ccc(OC(=O)c4ccc(C(C)(C)C)cc4)cc2)N3)C1 (configuration not stated) | inconclusive: 2.24 µM [inhibitor, full curve] | – |
| CCOc1ccc(-c2nc(CSCC(=O)N3CCN(c4ccc(F)cc4)CC3)c(C)o2)cc1 | inconclusive: 28.2 µM [inhibitor, partial curve, poor fit] | – |
| CCOc1ccc(C(=O)NCCn2cc(SCC(=O)Nc3ccc4c(c3)OCCO4)c3ccccc32)cc1 | inconclusive: 1 µM [inhibitor, full curve] | – |
| N#CCc1cnc2ccccc2n1 | inconclusive: 39.8 µM [inhibitor, single point] | – |
| O=S(=O)(NCc1cc(-c2ccc(Cl)cc2)no1)c1ccc(Cl)cc1 | inconclusive: 2.82 µM [inhibitor, single point] | – |
| Cc1ccc(-c2nc3ccccc3s2)cc1NC(=S)NC(=O)c1ccccc1 | inconclusive: 17.8 µM [inhibitor, partial curve, poor fit] | – |
| Fc1cccc(-n2ncc3c2ncn2nc(COc4ccc(Cl)cc4)nc32)c1 | inconclusive: 0.355 µM [inhibitor, full curve] | – |
| CCOc1cc(C(N)=O)cc(OCC)c1OCC | – | inactive: -7.85% |
| CCc1cccc(C)c1NC(=O)Cn1ccn(-c2cccc(OC)c2)c(=O)c1=O | inconclusive: 10 µM [inhibitor, partial curve] | – |
| Cc1[nH]n(-c2cccc(Cl)c2)c(=O)c1-c1ccccc1 | inconclusive: 44.7 µM [inhibitor, single point] | – |
| CC(C)=CCC/C(C)=C/CO/N=C1/C[C@@H](O)[C@@H](O)[C@@H]2[C@@H]3C(=O)N(C4CCCCC4)C(=O)[C@H]3CC[C@@H]12 | – | inactive: -4.23% [at 11.5 µM] |
| O=C(CCC1N=C2c3ccccc3N=C(SCc3ccc(F)cc3)N2C1=O)NCc1ccc(F)cc1 (configuration not stated) | – | inactive: -0.191% |
| Cc1ccc(S(=O)(=O)Nc2cc3c(cc2NCc2ccccc2)n(C)c(=O)n3C)c(C)c1 | active: 17.8 µM | – |
| CCOc1[nH]n(-c2ccccc2)c(=O)c1C=Nc1ccc(OC)cc1 | inconclusive: 20 µM [inhibitor, partial curve] | – |
| Cc1ccc2nc(NC(=O)CSCC(=O)OCC(=O)c3ccc(Br)cc3)sc2c1 | inconclusive: 0.282 µM [inhibitor, full curve, poor fit] | – |
| O=C(/C=C/c1cccc(O)c1)c1ccc(N2CCOCC2)cc1 | active: 3.55 µM | – |
| CCOc1ccc(C(=O)CCN2CCCCCC2)cc1 | inconclusive: 4.47 µM [inhibitor, partial curve] | – |
| Cc1nc2cc(-c3ccsc3-n3c(C)ccc3C)[nH]n2c(=O)c1Cl | active: 14.1 µM | – |
| CN(C)c1ccc(-c2nc(-c3cc4cc(Cl)ccc4oc3=O)cs2)cc1 | – | inactive: -9.85% |
| COc1ccc2c(CC(=O)Nc3nnc(C4CC4)s3)coc2c1 | inconclusive: 7.08 µM [inhibitor, full curve] | – |
| CCOC(=O)C(CC)Sc1nc2c(c(=O)[nH]c(=O)n2C)n1CCc1ccccc1 (configuration not stated) | – | inactive: -17.7% |

| SMILES | Potency | activity, negative = inhibition |
| --- | --- | --- |
| Cc1ccc(C)c(N2CCN(C(=O)C3CCN(c4nc5ccc(C)cc5[nH]4)CC3)CC2)c1 | inconclusive: 15.8 µM [inhibitor, single point] | – |
| COc1cccc(NC(=O)c2ccc(NC(=O)C3CC(=O)OC34CCCCC4)cc2)c1 (configuration not stated) | inconclusive: 6.31 µM [activator, partial curve] | – |
| Cc1cccc(NC(=O)CSc2ncc3c(n2)-c2ccccc2N(Cc2ccc(F)cc2)S3(=O)=O)c1C | – | inactive: 7.8% |
| Oc1nc(-c2ccc(Br)cc2)n2ccncc12 | inconclusive: 17.8 µM [inhibitor, single point] | – |
| Cc1ccc(N2CCN(C(=O)c3c(C)oc4ncn(CC(C)C)c(=O)c34)CC2)c(C)c1 | – | inactive: 4.49% |
| Cc1nnc2ccc(N3CCN(c4cccc(C(F)(F)F)c4)CC3)nn12 | inconclusive: 11.2 µM [inhibitor, partial curve] | – |
| COCCCNc1oc(/C=C/c2cc(OC)c(OC)c(OC)c2)nc1C#N | – | inactive: -15.6% |
| COC(=O)c1ccc(NC(=O)CSC2=NC(=O)C(c3ccccc3)C(=O)N2)cc1 (configuration not stated) | inconclusive: 35.5 µM [inhibitor, single point] | – |
| CCOc1ccc(Br)cc1S(=O)(=O)Nc1ccccc1N1CCOCC1 | – | inactive: -9.79% |
| Clc1ccc(/C=C/c2nc3ccccc3[nH]2)cc1 | inconclusive: 39.8 µM [activator, single point] | – |
| S=C(NNc1ccc2ccccc2c1)NC1CCCCC1 | active: 25.1 µM | – |
| COC(=O)c1ccc(/C=C/c2ccc3cccc(OC)c3n2)cc1 | inconclusive: 1.41 µM [inhibitor, full curve] | – |
| COc1ccc2cc(CN(Cc3cccs3)Cc3nnnn3Cc3ccccc3)c(=O)[nH]c2c1 | – | inactive: -14.3% |
| COc1ccc(/C(N)=N/OC(=O)CSc2ccc(C)cc2)cc1OC | inconclusive: 12.6 µM [inhibitor, partial curve] | – |
| CC(/C=N/NC(=O)Cc1cccn1C)=C\c1ccco1 | active: 28.2 µM | – |
| CCc1ccc(C(=O)c2cn(CC(=O)Nc3cc(C)ccc3C)c3nc(C)ccc3c2=O)cc1 | inconclusive: 14.1 µM [inhibitor, partial curve] | – |
| Cc1[nH]nc(-c2ccc(O)c(C)c2O)c1Oc1ccccc1 | inconclusive: 14.1 µM [inhibitor, partial curve] | – |
| Cc1ccn2cc(-c3ccc(NS(=O)(=O)c4ccccc4)cc3)nc2c1 | – | inactive: 0.603% |
| O=C(Nc1ccn(Cc2ccccc2)n1)c1n[nH]c([N+](=O)[O-])c1Cl | inconclusive: 17.8 µM [inhibitor, single point] | – |
| C=CCOc1c(Br)cc(/C=N/Nc2ccc(C(=O)O)cc2)cc1OCC | inconclusive: 14.1 µM [inhibitor, partial curve] | – |
| c1ccc(C(c2nnnn2C2CCCCC2)N2CCc3ccccc3C2)nc1 (configuration not stated) | inconclusive: 20 µM [inhibitor, single point] | – |
